# Assay results published in the supplement of paper PMC8728848.
# The other results are listed elsewhere or left out.
# B1: Siglec-7-SA-PE-180 (Homo sapiens), Q9Y286 (protein)
# chain: MLLLLLLPLLWGRERVEGQKSNRKDYSLTMQSSVTVQEGMCVHVRCSFSYPVDSQTDSDPVHGYWFRAGNDISWKAPVATNNPAWAVQEETRDRFHLLGDPQTKNCTLSIRDARMSDAGRYFFRMEKGNIKWNYKYDQLSVNVTALTHRPNILIPGTLESGCFQNLTCSVPWACEQGTPPMISWMGTSVSPLHPSTTRSSVLTLIPQPQHHGTSLTCQVTLPGAGVTTNRTIQLNVSYPPQNLTVTVFQGEGTASTALGNSSSLSVLEGQSLRLVCAVDSNPPARLSWTWRSLTLYPSQPSNPLVLELQVHLGDEGEFTCRAQNSLGSQHVSLNLSLQQEYTGKMRPVSGVLLGAVGGAGATALVFLSFCVIFIVVRSCRKKSARPAADVGDIGMKDANTIRGSASQGNLTESWADDNPRHHGLAAHSSGEEREIQYAPLSFHKGEPQDLSGQEATNNEYSEIKIPK
# Tests used:
# Assay in all cases: glycan array binding signal (z-score within array); higher = stronger binding
# Conditions in all cases: glycan notation: IUPAC condensed, linker removed
# [1] = target: Gal(a1-3)Gal(b1-4)[Fuc(a1-3)]GlcNAc
# In short: (§1)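 The binding signal is a Z-score computed within each array. Data were drawn from 3228 arrays in the Consortium for Functional Glycomics database, restricted to those with a known protein sequence. Scores were averaged over arrays of the same protein sequence at different concentrations or buffers, and over linkers, and negative values can be taken as non-binding.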
# [2] = target: Gal(a1-3)Gal(b1-4)[Fuc(a1-3)]GlcNAc(b1-2)Man(a1-3)[Gal(a1-3)Gal(b1-4)[Fuc(a1-3)]GlcNAc(b1-2)Man(a1-6)]Man(b1-4)GlcNAc(b1-4)GlcNAc
# In short: as §1
# Gal(a1-3)GalNAc = target: Gal(a1-3)GalNAc
# In short: as §1
# [3] = target: Gal(a1-3)[Gal(a1-4)]Gal(b1-4)GlcNAc
# In short: as §1
# [4] = target: Gal(a1-4)Gal(b1-3)GlcNAc(b1-2)Man(a1-3)[Gal(a1-4)Gal(b1-3)GlcNAc(b1-2)Man(a1-6)]Man(b1-4)GlcNAc(b1-4)GlcNAc
# In short: as §1
# Gal(a1-4)Gal(b1-4)Glc = target: Gal(a1-4)Gal(b1-4)Glc
# In short: as §1
# Gal(a1-4)Gal(b1-4)GlcNAc = target: Gal(a1-4)Gal(b1-4)GlcNAc
# In short: as §1
# [5] = target: Gal(a1-4)Gal(b1-4)GlcNAc(b1-2)Man(a1-3)[Gal(a1-4)Gal(b1-4)GlcNAc(b1-2)Man(a1-6)]Man(b1-4)GlcNAc(b1-4)GlcNAc
# In short: as §1
# [6] = target: Gal(a1-4)Gal(b1-4)GlcNAc(b1-3)Gal(b1-4)Glc
# In short: as §1
# Gal(a1-4)GlcNAc = target: Gal(a1-4)GlcNAc
# In short: as §1
# Gal(a1-6)Glc = target: Gal(a1-6)Glc
# In short: as §1
# Gal(b1-2)Gal = target: Gal(b1-2)Gal
# In short: as §1
# Gal(b1-3)Gal = target: Gal(b1-3)Gal
# In short: as §1
# Gal(b1-3)Gal(b1-4)GlcNAc = target: Gal(b1-3)Gal(b1-4)GlcNAc
# In short: as §1
# [7] = target: Gal(b1-3)Gal(b1-4)GlcNAc(b1-2)Man(a1-3)[Gal(b1-3)Gal(b1-4)GlcNAc(b1-2)Man(a1-6)]Man(b1-4)GlcNAc(b1-4)GlcNAc
# In short: as §1
# Gal(b1-3)GalNAc = target: Gal(b1-3)GalNAc
# In short: as §1
# [8] = target: Gal(b1-3)GalNAc(a1-3)[Fuc(a1-2)]Gal(b1-4)Glc
# In short: as §1
# [9] = target: Gal(b1-3)GalNAc(a1-3)[Fuc(a1-2)]Gal(b1-4)GlcNAc
# In short: as §1
# Gal(b1-3)GalNAc(b1-3)Gal = target: Gal(b1-3)GalNAc(b1-3)Gal
# In short: as §1
# [10] = target: Gal(b1-3)GalNAc(b1-3)Gal(a1-4)Gal(b1-4)Glc
# In short: as §1
# [11] = target: Gal(b1-3)GalNAc(b1-4)Gal(b1-4)Glc
# In short: as §1
# [12] = target: Gal(b1-3)GalNAc(b1-4)[Neu5Ac(a2-3)]Gal(b1-4)Glc
# In short: as §1
# Gal(b1-3)GlcNAc = target: Gal(b1-3)GlcNAc
# In short: as §1
# [13] = target: Gal(b1-3)GlcNAc(a1-3)Gal(b1-4)GlcNAc
# In short: as §1
# [14] = target: Gal(b1-3)GlcNAc(a1-6)Gal(b1-4)GlcNAc
# In short: as §1
# Gal(b1-3)GlcNAc(b1-2)Man = target: Gal(b1-3)GlcNAc(b1-2)Man
# In short: as §1
# [15] = target: Gal(b1-3)GlcNAc(b1-2)Man(a1-3)[Gal(b1-3)GlcNAc(b1-2)Man(a1-6)]Man(b1-4)GlcNAc(b1-4)GlcNAc
# In short: as §1
# [16] = target: Gal(b1-3)GlcNAc(b1-2)Man(a1-3)[Gal(b1-3)GlcNAc(b1-2)Man(a1-6)]Man(b1-4)GlcNAc(b1-4)[Fuc(a1-6)]GlcNAc
# In short: as §1
# [17] = target: Gal(b1-3)GlcNAc(b1-2)Man(a1-3)[GlcNAc(b1-4)][Gal(b1-3)GlcNAc(b1-2)Man(a1-6)]Man(b1-4)GlcNAc(b1-4)GlcNAc
# In short: as §1
# [18] = target: Gal(b1-3)GlcNAc(b1-2)[Gal(b1-3)GlcNAc(b1-6)]Man(a1-6)[Gal(b1-3)GlcNAc(b1-2)Man(a1-3)]Man(b1-4)GlcNAc(b1-4)GlcNAc
# In short: as §1
# [19] = target: Gal(b1-3)GlcNAc(b1-3)Gal(b1-3)GlcNAc
# In short: as §1
# [20] = target: Gal(b1-3)GlcNAc(b1-3)Gal(b1-4)Glc
# In short: as §1
# [21] = target: Gal(b1-3)GlcNAc(b1-3)Gal(b1-4)GlcNAc
# In short: as §1
# [22] = target: Gal(b1-3)GlcNAc(b1-3)Gal(b1-4)GlcNAc(b1-2)Man(a1-3)[Gal(b1-3)GlcNAc(b1-3)Gal(b1-4)GlcNAc(b1-2)Man(a1-6)]Man(b1-4)GlcNAc(b1-4)GlcNAc
# In short: as §1
# [23] = target: Gal(b1-3)GlcNAc(b1-3)Gal(b1-4)GlcNAc(b1-2)[Gal(b1-3)GlcNAc(b1-3)Gal(b1-4)GlcNAc(b1-6)]Man(a1-6)[Gal(b1-3)GlcNAc(b1-3)Gal(b1-4)GlcNAc(b1-2)Man(a1-3)]Man(b1-4)GlcNAc(b1-4)[Fuc(a1-6)]GlcNAc
# In short: as §1
# [24] = target: Gal(b1-3)GlcNAc(b1-3)Gal(b1-4)GlcNAc(b1-3)Gal(b1-4)GlcNAc(b1-2)[Gal(b1-3)GlcNAc(b1-3)Gal(b1-4)GlcNAc(b1-3)Gal(b1-4)GlcNAc(b1-6)]Man(a1-6)[Gal(b1-3)GlcNAc(b1-3)Gal(b1-4)GlcNAc(b1-3)Gal(b1-4)GlcNAc(b1-2)Man(a1-3)]Man(b1-4)GlcNAc(b1-4)[Fuc(a1-6)]GlcNAc
# In short: as §1
# [25] = target: Gal(b1-3)GlcNAc(b1-3)Gal(b1-4)GlcNAc(b1-6)[Gal(b1-3)GlcNAc(b1-3)]Gal(b1-4)Glc
# In short: as §1
# [26] = target: Gal(b1-3)GlcNAc(b1-3)Gal(b1-4)[Fuc(a1-3)]GlcNAc
# In short: as §1
# [27] = target: Gal(b1-3)GlcNAc(b1-3)Gal(b1-4)[Fuc(a1-3)]GlcNAc(b1-6)[Gal(b1-3)GlcNAc(b1-3)]Gal(b1-4)Glc
# In short: as §1
# [28] = target: Gal(b1-3)GlcNAc(b1-3)GalNAc
# In short: as §1
# [29] = target: Gal(b1-3)GlcNAc(b1-6)Gal(b1-4)GlcNAc
# In short: as §1
# [30] = target: Gal(b1-3)GlcNAc(b1-6)GalNAc
# In short: as §1
# [31] = target: Gal(b1-3)GlcNAc(b1-6)[Gal(b1-3)]GalNAc
# In short: as §1
# Gal(b1-3)GlcNAc6S = target: Gal(b1-3)GlcNAc6S
# In short: as §1
# [32] = target: Gal(b1-3)[Fuc(a1-4)]GlcNAc
# In short: as §1
binder,measurement,setting,value
B1,glycan array binding signal (z-score),[1],-0.216
same,glycan array binding signal (z-score),[2],0.009
same,glycan array binding signal (z-score),Gal(a1-3)GalNAc,-0.153
same,glycan array binding signal (z-score),[3],0.374
same,glycan array binding signal (z-score),[4],-0.291
same,glycan array binding signal (z-score),Gal(a1-4)Gal(b1-4)Glc,-0.367
same,glycan array binding signal (z-score),Gal(a1-4)Gal(b1-4)GlcNAc,-0.174
same,glycan array binding signal (z-score),[5],-0.102
same,glycan array binding signal (z-score),[6],-0.225
same,glycan array binding signal (z-score),Gal(a1-4)GlcNAc,-0.247
same,glycan array binding signal (z-score),Gal(a1-6)Glc,-0.141
same,glycan array binding signal (z-score),Gal(b1-2)Gal,-0.016
same,glycan array binding signal (z-score),Gal(b1-3)Gal,-0.057
same,glycan array binding signal (z-score),Gal(b1-3)Gal(b1-4)GlcNAc,-0.288
same,glycan array binding signal (z-score),[7],-0.363
same,glycan array binding signal (z-score),Gal(b1-3)GalNAc,-0.353
same,glycan array binding signal (z-score),[8],-0.1
same,glycan array binding signal (z-score),[9],-0.394
same,glycan array binding signal (z-score),Gal(b1-3)GalNAc(b1-3)Gal,-0.504
same,glycan array binding signal (z-score),[10],-0.171
same,glycan array binding signal (z-score),[11],0.158
same,glycan array binding signal (z-score),[12],-0.153
same,glycan array binding signal (z-score),Gal(b1-3)GlcNAc,-0.03
same,glycan array binding signal (z-score),[13],-0.314
same,glycan array binding signal (z-score),[14],-0.387
same,glycan array binding signal (z-score),Gal(b1-3)GlcNAc(b1-2)Man,0.044
same,glycan array binding signal (z-score),[15],-0.318
same,glycan array binding signal (z-score),[16],-0.352
same,glycan array binding signal (z-score),[17],-0.03
same,glycan array binding signal (z-score),[18],-0.181
same,glycan array binding signal (z-score),[19],-0.395
same,glycan array binding signal (z-score),[20],-0.479
same,glycan array binding signal (z-score),[21],0.024
same,glycan array binding signal (z-score),[22],-0.12
same,glycan array binding signal (z-score),[23],0.215
same,glycan array binding signal (z-score),[24],0.606
same,glycan array binding signal (z-score),[25],-0.201
same,glycan array binding signal (z-score),[26],-0.189
same,glycan array binding signal (z-score),[27],-0.201
same,glycan array binding signal (z-score),[28],-0.304
same,glycan array binding signal (z-score),[29],-0.207
same,glycan array binding signal (z-score),[30],-0.411
same,glycan array binding signal (z-score),[31],0.341
same,glycan array binding signal (z-score),Gal(b1-3)GlcNAc6S,0.32
same,glycan array binding signal (z-score),[32],-0.102
